Measured values reported in paper PMC4215230, “Incorporation of Pentraxin 3 into Hyaluronan Matrices Is Tightly Regulated and Promotes Matrix Cross-linking” (The Journal of Biological Chemistry, 2014).

Biological target: T1, Biotinylated PTX3 (human, UniProt P26022 18-381, NHS-PEG4-biotin on primary amines, on average 2 mol of biotin/mol of PTX3 protomer)
T1 construct: pentraxin 3 (PTX3), human, recombinant, biotinylated through primary amines; Immobilised on a streptavidin monolayer by its biotins, in a variety of orientations; also called b-PTX3; source: Chinese hamster ovary 3.5 cell line, purified, then modified with EZ-Link NHS-PEG4-Biotin
Test: spectroscopic ellipsometry; b-PTX3 immobilised on a streptavidin monolayer at a monomer surface density of 4.8 pmol/cm^2; Link_TSG6 or rhTSG-6 added at identical molar bulk concentrations, then buffer rinse; HEPES buffer pH 7.4; no HA
Settings: both partners purified

T1 sequence (P26022 18-381): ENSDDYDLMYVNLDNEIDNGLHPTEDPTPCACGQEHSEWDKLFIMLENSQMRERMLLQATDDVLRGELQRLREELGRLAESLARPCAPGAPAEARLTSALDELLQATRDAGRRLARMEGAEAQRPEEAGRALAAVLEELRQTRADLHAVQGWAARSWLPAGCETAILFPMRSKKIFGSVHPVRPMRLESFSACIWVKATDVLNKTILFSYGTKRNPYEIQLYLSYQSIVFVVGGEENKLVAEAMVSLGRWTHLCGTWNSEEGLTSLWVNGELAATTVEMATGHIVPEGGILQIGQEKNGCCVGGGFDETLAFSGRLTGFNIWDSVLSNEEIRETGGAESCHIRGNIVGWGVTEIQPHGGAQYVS

B1: Wild type human TSG-6 Link module (Link_TSG6) (domain or fragment)
chain: not shown
notes: TSG-6 (secreted product of tumor necrosis factor-stimulated gene-6), human, Link module, 10.9 kDa; source: Escherichia coli, as described previously
- stoichiometry N: 4 TSG-6 binding sites per PTX3 octamer
